Consider 61 compounds from PubChem BioAssay AID1159614 (National Center for Advancing Translational Sciences (NCATS), 2016).

The structures appear in SMILES notation. The campaign covered roughly 45,000 compounds. About 65 (0.1%) were called active. The call rests on the fitted dose curve; in most records, active means well fitted activation curve with a large enough effect; inconclusive means small, poorly fitted or top-dose-only effect; inactive means no such curve, though single readings can be large or run the other way. This is one part of the list. Peptide text beside a SMILES is read from it.

The target of the assay is Galactocerebrosidase (Homo sapiens) (UniProt P54803). Briefly: A Novel Cell-Based Assay to Identify Small Molecules for B -Galactocerebrosidase. Further: 0% is about no effect; nearly all actives have a fitted effect of over 65% in size. As to conditions: 145M-Twi-hGALC-G270D cells (Twitcher mouse brain line with human GALC G270D), HMU-beta-Gal fluorescence, 48 h; series mostly up to 57.5 µM; activation: at the top concentration. An outline of the steps: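 Mutant human GALC (G270D), stably expressed in a Twitcher mouse brain cell line lacking endogenous GALC, is measured in live-treated cells via 6-hexadecanoylamino-4-methylumbelliferyl-β-galactoside hydrolysis (0.1 mM final, pH 5.2) with fluorescent detection.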
Chain of UniProt P54803 (P54803 whole entry, looked up): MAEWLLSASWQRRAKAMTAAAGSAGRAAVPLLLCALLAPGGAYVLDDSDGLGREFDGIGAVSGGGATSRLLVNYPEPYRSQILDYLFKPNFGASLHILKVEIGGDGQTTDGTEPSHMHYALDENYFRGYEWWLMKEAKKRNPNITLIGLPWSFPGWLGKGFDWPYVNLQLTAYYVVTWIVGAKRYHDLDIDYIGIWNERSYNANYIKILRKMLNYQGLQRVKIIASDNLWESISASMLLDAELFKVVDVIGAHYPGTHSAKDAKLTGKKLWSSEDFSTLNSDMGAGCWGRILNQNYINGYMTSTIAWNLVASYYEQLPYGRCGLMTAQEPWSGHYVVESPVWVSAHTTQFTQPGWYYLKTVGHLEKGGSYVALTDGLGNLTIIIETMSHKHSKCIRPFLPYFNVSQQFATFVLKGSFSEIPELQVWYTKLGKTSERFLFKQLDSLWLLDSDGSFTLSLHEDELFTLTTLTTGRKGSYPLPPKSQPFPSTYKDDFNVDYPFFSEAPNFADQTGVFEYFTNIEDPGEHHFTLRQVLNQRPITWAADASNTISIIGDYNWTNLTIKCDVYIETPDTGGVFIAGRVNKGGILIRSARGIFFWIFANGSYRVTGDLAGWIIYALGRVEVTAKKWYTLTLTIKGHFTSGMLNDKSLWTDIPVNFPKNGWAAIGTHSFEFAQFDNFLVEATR
In the case of `CCOc1ccccc1-c1nc(SCC(=O)c2ccc(OC)c(Br)c2)n[nH]1`, the “activation” value is inactive: -14.2%.

On to `Cc1ccc(Cl)cc1N1CCN(C(=O)CCCCCn2c(=O)[nH]c3ccccc3c2=O)CC1`, for which the “activation” value was inactive: -16.3%.

Take `CNS(=O)(=O)c1cc(-c2nnc(Nc3cc(C)ccc3C)c3ccccc23)ccc1C`: the “activation” value is inactive: -28.3%.

Consider `COc1ccccc1N1CCN(C(=O)c2cnc(N3CCCCC3)c3ccccc23)CC1`, for which the “activation” value is inactive: -16.4%.

As to `Cc1ccc(-c2nnc(SCC(=O)NCc3ccccc3)nc2-c2ccc(C)cc2)cc1`, the “activation” value is inactive: -1.36%.

Take `CCc1ccc(C(=O)NC(Cc2c[nH]c3ccccc23)C(=O)OCC(=O)c2ccc(Br)cc2)cc1` (stereo unspecified): the “activation” value was inactive: -2.04%.

`Cc1cc2c(cc3c(SCC(=O)Nc4cccc(Cl)c4C)nnc(C)n32)o1`: the “activation” value was inactive: -17%.

For the compound `CCOC(=O)c1cnc2ccccc2c1Nc1cccc(OC)c1`, the “activation” value is inactive: -14.2%.

Regarding `Cc1cnc(=O)[nH]c1SCC(=O)Nc1nc2ccccc2s1`, the “activation” value was inactive: -17.3%.

Regarding `Cc1ccc2oc(-c3cccc(NC(=O)c4sc5c([N+](=O)[O-])cccc5c4Cl)c3)nc2c1`, the “activation” value is inactive: -11%.

Consider `O=c1c2sccc2n(Cc2cc(=O)n3ccccc3n2)c(=O)n1-c1cccc(C(F)(F)F)c1`, for which the “activation” value was inactive: -12.6%.

Take `O=C(COc1ccc(F)cc1)NCCc1nc2ccccc2[nH]1`: the “activation” value is inactive: -14.6%.

In the case of `CCOc1ccc(CCNC(=O)c2c(C)oc3ncn(C)c(=O)c23)cc1`, the “activation” value is inactive: -13.5%.

As to `Cc1cc(-c2ccc(C)c(S(=O)(=O)Nc3cccc(C#N)c3)c2)on1`, the “activation” value was inactive: -9.07%.

`COc1ccc(/C=C/C(=O)Nc2ccc(Cl)c(Cl)c2)cc1`: the “activation” value was inactive: -2.72%.

As to `Cc1ccccc1NS(=O)(=O)c1ccc2[nH]c3c(c2c1)CCCCC3`, the “activation” value was inactive: -3.84%.

`O=C(NCCCN1CCOCC1)c1ccc(Cl)cc1`: the “activation” value was inactive: -13.9%.

In the case of `Cc1ccc(Cl)cc1N1CCN(C(=O)c2ccc3nc(N4CCC(C)CC4)sc3c2)CC1`, the “activation” value is inactive: -2.76%.

As to `CCOC(=O)c1cc(-c2ccccc2)n(CCC(=O)Nc2nc3c(C)cccc3s2)c1C`, the “activation” value was inactive: -0.899%.

Consider `CC(C)CCOc1ccccc1Cn1c(=O)sc2ccccc21`, for which the “activation” value is inactive: -14.1%.

As for `Cc1ccc(-c2cc3c(N4CCN(c5cc(C)ccc5C)CC4)nccn3n2)cc1`, the “activation” value is inactive: -19.1%.

Consider `CC(=O)N1c2c(cc(Br)cc2S(=O)(=O)N2CCN(c3ccccc3)CC2)CC1C` (stereo unspecified), for which the “activation” value is inactive: -11.3%.

`CCc1ccc(-n2c(=O)c3c(C)c(C(=O)N(C)C)sc3n(Cc3ccccc3F)c2=O)cc1`: the “activation” value is inactive: -2.04%.

As for `CCOc1ccccc1CNC(=O)CCn1ccc2cc(S(=O)(=O)N3CCCCC3)ccc21`, the “activation” value is inactive: -15.5%.

For the compound `Cn1c(=O)c2sccc2n2c(CCCC(=O)Nc3ccc(Oc4ccc(Cl)cc4)cc3)nnc12`, the “activation” value is inactive: -9.22%.

As to `COc1ccc(-c2cc(OC(=O)c3cccc(C)c3)c3c(C)oc(C)c3c(=O)c2)cc1`, the “activation” value is inactive: -13.9%.

Consider `Cc1cc(C)c(NC(=O)Cn2nnc(C(=O)Nc3ccc(F)cc3F)c2N)c(C)c1`, for which the “activation” value is inactive: 3.21%.

For the compound `Cc1ccc(CNC(=O)c2ccc3c(c2)nc2n3CCCC2)cc1`, the “activation” value is inactive: -25.5%.

On to `CC(=O)Nc1ccc(NC(=O)c2c(C)nn(-c3ccccc3)c2-n2cccc2)cc1`, for which the “activation” value was inactive: -10.3%.

Regarding `Cc1ccc(CNc2ncnc3c2cnn3-c2ccc(C)cc2C)cc1`, the “activation” value is inactive: -16.2%.

Regarding `Cc1cc(C)n(-c2nc(C)c(C)c(=O)n2CC(=O)Nc2ccc(Cl)c(Cl)c2)n1`, the “activation” value is inactive: -14.1%.

Consider `COc1ccc(NC(=O)CCNS(=O)(=O)c2ccc3c(c2)CCN3C(=O)C2CC2)cc1Cl`, for which the “activation” value was inactive: -33.2%.

For the compound `COc1ccc(-c2nnc(SCC(=O)Nc3cccc(Cl)c3C)nc2-c2ccc(OC)cc2)cc1`, the “activation” value was inactive: 3.71%.

With `CCn1cc(C(=O)NCc2ccccc2OC)c(=O)c2cc(S(=O)(=O)N3CCCCCC3)ccc21`, the “activation” value was inactive: 5.73%.

On to `CCOC(=O)c1cc(-c2ccccc2)n(CCCC(=O)Nc2ccc(C)cc2Cl)c1C`, for which the “activation” value was inactive: -4.05%.

On to `COc1cccc(NC(=O)c2nnn(Cc3ccc(OC)c(Br)c3)c2N)c1`, for which the “activation” value was inactive: -4.02%.

On to `CCc1nn2c(=O)cc(COC(=O)C3CCCCC3)nc2s1`, for which the “activation” value is inactive: -7.28%.

On to `Cc1cc(C)c(NS(=O)(=O)c2cc(-c3cnc(C4CC4)o3)ccc2C)c(C)c1`, for which the “activation” value was inactive: -15.3%.

With `CC(=O)N1CCN(c2ccc(O)cc2)CC1`, the “activation” value was inactive: -11.3%.

Take `COc1ccc(CNC(=O)C2CCN(S(=O)(=O)c3ccc4nc5c(c(C(=O)O)c4c3)CC(C)CC5)CC2)cc1` (stereo unspecified): the “activation” value was inactive: 2.07%.

Regarding `CCc1ccc(NC(=O)C2CCCN(S(=O)(=O)c3cccc4nonc34)C2)cc1` (stereo unspecified), the “activation” value is inactive: -8.22%.

In the case of `CCOc1ccc(NC(=O)Cn2cnc3c(oc4ccccc43)c2=O)cc1`, the “activation” value is inactive: -12.9%.

`CN1C(=O)Cc2cc(S(=O)(=O)CCC(=O)N3CCN(c4cccc(Cl)c4)CC3)ccc21`: the “activation” value is inactive: -20.4%.

As to `COc1cc(-c2noc(C3CC(=O)N(c4cc(C)ccc4C)C3)n2)cc(OC)c1OC` (stereo unspecified), the “activation” value was inactive: -13.5%.

As for `Cc1ccsc1CCN1C(=O)N(c2ccc(F)cc2)C(=O)C1CC(=O)Nc1ccccc1` (stereo unspecified), the “activation” value is inactive: -5.33%.

Turning to `COc1cccc(NS(=O)(=O)c2cc3c4c(c2)C(C)C(=O)N4CCC3)c1` (stereo unspecified), the “activation” value was inactive: -9.98%.

Regarding `CCC(C)NC(=O)c1ccc2c(c1)N=C(C)c1cc(C)ccc1S2` (stereo unspecified), the “activation” value is inactive: -7.08%.

Regarding `COC(=O)[C@H](Cc1ccccc1)NC(=O)[C@@H](N)CC(=O)O` (H-Asp-Phe-OMe), the “activation” value is inactive: -13.4%.

On to `Cc1ccc2c(=O)cc(C(=O)Nc3c(C(=O)c4ccccc4)oc4ccccc34)oc2c1C`, for which the “activation” value is inactive: 0.628%.

As to `CC(C)(C)OC(=O)N1CCC(c2c(C(=O)NCc3ccccn3)cnn2-c2ccc(F)cc2)CC1`, the “activation” value is inactive: -1.61%.

Regarding `Cc1cc(C)c2c(=O)cc(C(=O)Nc3ccc(S(=O)(=O)Nc4onc(C)c4C)cc3)oc2c1`, the “activation” value was inactive: -14.3%.

Regarding `COc1ccc(-n2nnc(C(=O)Nc3ccccc3F)c2N)cc1`, the “activation” value is inactive: -13%.

In the case of `COc1cccc(NC(=O)C(=O)NCCc2csc3nc(-c4ccccc4C)nn23)c1`, the “activation” value is inactive: -5.66%.

`CCc1ccccc1N(c1nc(-c2ccc(OC)c(OC)c2)no1)c1nc(-c2ccc(OC)c(OC)c2)no1`: the “activation” value was inactive: -14.3%.

With `CCN1C(=O)c2ccccc2Sc2ccc(NC(=O)Cc3ccc(OC)cc3)cc21`, the “activation” value is inactive: -17.4%.

In the case of `CCOc1ccc(NCc2cccn2-c2nnc(N3CCC(C(=O)NCc4cccc(OC)c4)CC3)s2)cc1`, the “activation” value was inactive: -11.8%.

For `CC(C)CC(=O)Nc1nnc2n1CCS2`, the “activation” value was inactive: -4.15%.

On to `CCCn1cc(S(=O)(=O)c2cc(C)ccc2C)c(=O)c2cc(F)c(N3CCCCCC3)cc21`, for which the “activation” value is inactive: -43.8%.

Turning to `COc1ccc(-c2cc(-c3ccccc3)nc3c2COc2ccccc2-3)cc1`, the “activation” value was inactive: -0.585%.

For `Cc1cccc(CCNC(=O)c2ccc3c(c2)nc2n3CCCCC2)c1`, the “activation” value was inactive: -7.16%.

Turning to `Cc1nc2c(-c3ccc(F)cc3)c(C)nn2c(C)c1CCC(=O)N1CCN(c2ccc(F)cc2)CC1`, the “activation” value was inactive: -21.3%.
